Residue numbers refer to the chain shown, from its start. Names may count otherwise. No constants are given. Whether binding was seen depends on the method and setting. In cells and extracts the contact can be indirect. Some entries that bind do so weakly or less than the wild type. For part of these data: Sequences can lack the tags named with a protein.
B1: gasdermin D (endogenous, THP-1 cells) (protein, UniProt P57764 1-484)
chain: MGSAFERVVRRVVQELDHGGEFIPVTSLQSSTGFQPYCLVVRKPSSSWFWKPRYKCVNLSIKDILEPDAAEPDVQRGRSFHFYDAMDGQIQGSVELAAPGQAKIAGGAAVSDSSSTSMNVYSLSVDPNTWQTLLHERHLRQPEHKVLQQLRSRGDNVYVVTEVLQTQKEVEVTRTHKREGSGRFSLPGATCLQGEGQGHLSQKKTVTIPSGSTLAFRVAQLVIDSDLDVLLFPDKKQRTFQPPATGHKRSTSEGAWPQLPSGLSMMRCLHNFLTDGVPAEGAFTEDFQGLRAEVETISKELELLDRELCQLLLEGLEGVLRDQLALRALEEALEQGQSLGPVEPLDGPAGAVLECLVLSSGMLVPELAIPVVYLLGALTMLSETQHKLLAEALESQTLLGPLELVGSLLEQSAPWQERSTMSLPPGLLGNSWGEGAPAWVLLDECGLELGEDTPHVCWEPQAQGRMCALYASLALLSGLSQEPH
B2: Flag-MLKL (protein, UniProt Q8NB16 1-471)
chain: MENLKHIITLGQVIHKRCEEMKYCKKQCRRLGHRVLGLIKPLEMLQDQGKRSVPSEKLTTAMNRFKAALEEANGEIEKFSNRSNICRFLTASQDKILFKDVNRKLSDVWKELSLLLQVEQRMPVSPISQGASWAQEDQQDADEDRRAFQMLRRDNEKIEASLRRLEINMKEIKETLRQYLPPKCMQEIPQEQIKEIKKEQLSGSPWILLRENEVSTLYKGEYHRAPVAIKVFKKLQAGSIAIVRQTFNKEIKTMKKFESPNILRIFGICIDETVTPPQFSIVMEYCELGTLRELLDREKDLTLGKRMVLVLGAARGLYRLHHSEAPELHGKIRSSNFLVTQGYQVKLAGFELRKTQTSMSLGTTREKTDRVKSTAYLSPQELEDVFYQYDVKSEIYSFGIVLWEIATGDIPFQGCNSEKIRKLVAVKRQQEPLGEDCPSELREIIDECRAHDPSVRPSVDEILKKLSTFSK
B3: Flag-MLKL L176A (protein, UniProt Q8NB16 1-471)
chain: B2 chain with L176A
B4: MLKL (endogenous, THP-1 cells) (protein, UniProt Q8NB16 1-471)
chain: B2 chain

Chains of the proteins cited; added tags and fusions are not shown. Lines headed by an entry give the natural chain unless they say otherwise; changes in a name come on top.
UniProt P10415: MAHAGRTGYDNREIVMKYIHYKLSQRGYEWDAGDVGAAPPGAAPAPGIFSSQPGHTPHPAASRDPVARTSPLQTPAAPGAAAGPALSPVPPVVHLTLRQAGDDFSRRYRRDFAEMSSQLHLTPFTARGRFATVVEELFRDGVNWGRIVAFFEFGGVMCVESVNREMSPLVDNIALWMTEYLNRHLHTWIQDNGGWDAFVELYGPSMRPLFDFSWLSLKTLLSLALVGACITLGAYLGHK

Columns and labels:
[1] = molecular target: Bcl-2 (endogenous, THP-1 cells) (human (endogenous in THP-1)) (UniProt P10415); assay: co-IP; endogenous proteins; Bcl-2 immunoprecipitated from THP-1 lysates; cells basal or LPS 50 ng/ml 5 h + nigericin 5 uM 30 min (Fig. 1b); PMA treated cells with or without TNFa 20 ng/ml, 100 nM Smac mimetic, 20 uM z-VAD-FMK for 3 h (Fig. 5d); lysis buffer 20 mM HEPES pH 7.4, 0.5% Triton X-100, 0.5% CHAPS, 10% glycerol; washed eight times
[2] = molecular target: Bcl-2 G145A (transfected, HEK-293T) (UniProt P10415); assay: co-IP; HEK-293T cells transfected with Flag-MLKL or Flag-MLKL L176A and Bcl-2 or Bcl-2 G145A; Bcl-2 antibodies used to immunoprecipitate; Flag-MLKL detected by blot
[3] = molecular target: Bcl-2 (transfected, HEK-293T) (UniProt P10415); assay: as above

Row | Binder | binding [1] | binding [2] | binding [3]
1 | B1 | binds | – | –
2 | B2 | – | binds | binds
3 | B3 | – | binds | binds
4 | B4 | binds | – | –
